# From PMC4336329 (PLoS ONE, 2015)
# Hit rate of the full screen: of about 310,000 compounds, about 2,200 (0.71%) showed an effect of 50% or more. Effects have a minus sign here. Some of the results follow.
# Target: human ether-à-go-go-related gene (hERG) potassium channel (human, UniProt Q12809)
# Test: primary screen, population patch clamp on CHO cells stably expressing hERG
# Sequence of human ether-à-go-go-related gene (hERG) potassium channel (Q12809 whole entry, looked up): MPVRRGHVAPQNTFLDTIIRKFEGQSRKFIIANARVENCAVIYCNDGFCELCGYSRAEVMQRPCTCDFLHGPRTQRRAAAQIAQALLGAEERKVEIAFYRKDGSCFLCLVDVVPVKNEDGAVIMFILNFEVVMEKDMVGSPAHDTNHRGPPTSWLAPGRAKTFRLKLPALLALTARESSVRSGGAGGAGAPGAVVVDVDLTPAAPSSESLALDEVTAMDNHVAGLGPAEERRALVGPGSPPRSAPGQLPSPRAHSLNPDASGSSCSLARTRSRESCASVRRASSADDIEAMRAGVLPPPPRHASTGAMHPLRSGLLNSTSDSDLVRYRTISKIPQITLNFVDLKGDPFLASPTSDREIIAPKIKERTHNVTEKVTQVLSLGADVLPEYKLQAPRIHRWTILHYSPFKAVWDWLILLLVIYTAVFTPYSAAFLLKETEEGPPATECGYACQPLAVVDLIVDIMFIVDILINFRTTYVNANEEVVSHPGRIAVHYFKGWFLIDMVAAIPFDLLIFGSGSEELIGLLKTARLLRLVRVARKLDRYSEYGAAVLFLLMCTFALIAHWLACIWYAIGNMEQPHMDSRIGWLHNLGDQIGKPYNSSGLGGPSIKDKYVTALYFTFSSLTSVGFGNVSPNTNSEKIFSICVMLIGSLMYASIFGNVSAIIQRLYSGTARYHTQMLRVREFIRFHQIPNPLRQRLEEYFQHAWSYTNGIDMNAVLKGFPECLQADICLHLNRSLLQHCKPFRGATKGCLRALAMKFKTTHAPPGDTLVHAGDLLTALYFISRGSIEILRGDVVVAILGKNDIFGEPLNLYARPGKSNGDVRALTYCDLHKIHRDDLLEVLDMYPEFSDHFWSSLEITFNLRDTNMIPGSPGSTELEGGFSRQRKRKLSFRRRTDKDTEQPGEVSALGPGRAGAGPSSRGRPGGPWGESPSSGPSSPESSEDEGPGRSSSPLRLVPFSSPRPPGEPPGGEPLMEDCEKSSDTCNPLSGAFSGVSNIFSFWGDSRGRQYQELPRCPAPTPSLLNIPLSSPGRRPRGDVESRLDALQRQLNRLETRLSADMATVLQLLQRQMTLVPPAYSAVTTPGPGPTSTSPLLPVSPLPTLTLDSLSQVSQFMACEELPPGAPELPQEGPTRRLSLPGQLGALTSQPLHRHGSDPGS
row,Structure (SMILES),"hERG current change (%, negative = inhibition) at 1uM"
1,CCn1c(CC(=O)Nc2cccc(Cl)c2Cl)nnc1SCCOc1ccc(OC)cc1,12.9%
2,C#CCOC(=O)c1ccccc1C(=O)n1nnc2ccccc21,3.9%
3,CCC(C(=O)NCc1ccco1)N(C(=O)CNS(=O)(=O)c1ccccc1)C1CCCCC1 (stereo not shown),-5.76%
4,COc1ccc(NC(=O)CN2C(=O)C(c3ccccc3)=NC23CCCCCC3)cc1,8.77%
5,CCOc1ccc(NC(=O)Nc2ccon2)cc1,11.4%
6,O=C(Nc1ccc(F)cc1)C1CCN(c2ncnc3c2nc2n3CCCCC2)CC1,4.72%
7,COc1cc(C(=O)NCCC(=O)NC(C)CCc2ccccc2)cc(OC)c1OC (stereo not shown),0.971%
8,O=C(C/C=N\OCc1ccc([N+](=O)[O-])cc1)Nc1ccc(Br)cc1,16.6%
9,Cc1ccc2cc(C(c3nnnn3C3CCCC3)N3CCN(c4ccccc4)CC3)c(=O)[nH]c2c1 (stereo not shown),-10.5%
10,CN(Cc1ccccc1)Cc1nc2c([nH]1)c(=O)[nH]c(=O)n2C,0.171%
11,CC(C)C1=CC2=CCC3C(C)(C(=O)[O-])CCCC3(C)C2CC1.CC(C12CC3CC(CC(C3)C1)C2)[N+](C)(C)C (stereo not shown),11.2%
12,N#Cc1c(-c2ccccc2)nc(SCC(=O)Nc2nnc(C(F)(F)F)s2)[nH]c1=O,8.9%
13,CCOc1cc2[nH]c(=S)n(CCN3CCC(C)CC3)c(=O)c2cc1OCC,-19.1%
14,O=[N+]([O-])c1ccc(N2N=C(c3ccco3)CC2c2ccccc2)cc1 (stereo not shown),0.585%
15,COC(=O)Cc1[nH]nc2c1C(C1C=CCCC1)C(C#N)=C(N)O2 (stereo not shown),-10.2%
16,CCOC(=O)C(C)(C)Oc1ccc(Cl)cc1,8.05%
17,Cc1nc(S/C(=C/c2ccc(-c3ccc(C(=O)O)cc3)o2)C(=O)O)n[nH]1,-2.87%
18,O=C(Nc1cccc(S(=O)(=O)N2CCOCC2)c1)C(c1ccccc1)N1CCCCC1 (stereo not shown),1.78%
19,COc1ccc(CC(=O)Nc2cccc(C(=O)O)c2C)cc1,16.7%
20,N#C/C(=C\c1ccc(Cl)c([N+](=O)[O-])c1)c1ccccn1,7.77%
21,CC(=O)N1N=C(N)SC1c1cccc([N+](=O)[O-])c1 (stereo not shown),8.19%
22,CC(CCc1ccccc1)NC(=O)CNC(=O)c1cccs1 (stereo not shown),-5.52%

row,Structure (SMILES),"hERG current change (%, negative = inhibition) at 1uM"
1,O=S(=O)(NCc1ccncc1)c1ccc(Br)s1,3.27%
2,Cc1cc(NC(=O)Cc2ccccc2[N+](=O)[O-])no1,17.6%
3,O=C(Nc1ccccc1C(=O)O)c1ccc(Cl)c(S(=O)(=O)N2CCOCC2)c1,12.6%
4,Cn1c(C(C#N)C(=O)Cc2cccc3ccccc23)nc2ccccc21 (stereo not shown),11.6%
5,O=C(NCc1cccnc1)/C(=C/c1ccc(-c2cccc(Cl)c2)o1)S(=O)(=O)c1ccccc1,-4.77%
6,COc1ccc(Cl)cc1NC(=O)Cn1c(NCCO)nc2ccccc21,15.5%
7,COc1ccc(CNc2nc(-c3cccnc3)nn2C(=O)c2cccs2)cc1,2.12%
8,COc1ccc([N+](=O)[O-])cc1NC(=O)c1ccc(N(Cc2ccccc2Cl)S(C)(=O)=O)cc1,-1.33%
9,S=c1[nH]nc(-c2cc(-c3ccccc3)n[nH]2)n1/N=C/c1c(Cl)cccc1Cl,21.5%
10,C=CCn1c(CNC(=O)c2ccco2)nnc1SCC(=O)c1ccc(OC)cc1,1.89%
11,CCOc1ccc2nc(SCC(=O)N3c4ccccc4Sc4ccccc43)sc2c1,8.21%
12,COc1ccc(CCC(=O)Nc2ccc(N3CCOCC3)cc2)cc1,4.17%
13,O=C(NCc1ccc2c(c1)OCO2)C1CC(=O)N(CCc2ccccc2)C1 (stereo not shown),16.9%
14,NC(=O)COc1ccc2oc(=O)cc(-c3cc4ccccc4o3)c2c1,20.5%
15,CC1CCc2sc(C(=O)NC(C)C3CCCO3)cc2C1 (stereo not shown),-4.56%
16,CC(C(=O)NC(=O)NC1CCCCC1)N1CCN(c2ccccn2)CC1 (stereo not shown),0.685%
17,C[C@H](N)c1nnc(SCC(N)=O)o1.Cl,3.37%
18,CCC(C)NC(=O)N[C@@H](CCSC)C(=O)OC (stereo partly shown),0.868%
19,C=CCn1c(SCC(=O)c2ccc(OC)cc2)nnc1-c1cc2cccc(OC)c2o1,18%
20,COc1ccc(NC(=O)CSc2nnc(-c3cccs3)n2Cc2ccco2)cc1OC,-17.2%
21,CC(C)O.COC(=O)Nc1ccc2c(c1)N(C(=O)CCN1CCN3CCCC3C1)c1ccccc1CC2.Cl.O (stereo not shown),8.89%
